Measurements as given in paper PMC12040169 (PLOS Biology, 2025).
The other results are listed elsewhere or left out.

Tested on: T1, C. trachomatis L2/434/Bu expressing GFP (CTL2-GFP)
T1 construct: L2/434/Bu GFP intracellular growth in HeLa cells
Set-up: species or system HeLa; C. trachomatis total inclusion area by high-content imaging, normalised to DMSO
Conditions: total inclusion area; 28.5 h, 10 µM; inhibitor
In short: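 Bulk GFP and resorufin signals were read first. Wells were then fixed, stained with Hoechst and imaged to detect GFP inclusions and host nuclei. MICs followed the previously described calculation.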

Row | SMILES | % of control remaining
1 | CCCN1CCC(CNC(=O)Cn2ccc3ccc(F)cc32)CC1 [CBK282573] | 97.1512
2 | CCc1nn(CC(=O)N2CCCCC2)c(=O)c2cc3oc(C)cc3n12 [CBK283575] | 55.9775
3 | CN(C)CC1CCCCN1C(=O)[C@@H]1C[C@@H]2C=C[C@H]1C2 (stereo partly drawn) [CBK282086] | 129.282
4 | CCOc1ccccc1CNCc1ccccn1 [CBK268041C] | 100.825
5 | Cc1ccc(C)c(OCCNCc2ccco2)c1Cl [CBK269718C] | 81.6304
6 | Cn1c(CCC(=O)Nc2c[nH]c3ccccc23)nc2ccccc21 [CBK282507] | 87.2219
7 | COc1ccc2[nH]c3c(c2c1)CCNC31CCN(CCC2CCCCC2)C1 (stereo not drawn) [CBK040111T] | 83.1661
8 | Oc1c2c(nn1Cc1ccccc1)CCCC2 [CBK089898] | 99.1427
9 | COc1cc(CNC(=O)N2CCN(C3CCN(C)CC3)CC2)cc(OC)c1OC [CBK155893] | 91.1529
10 | CCOc1ccc(Cl)cc1S(=O)(=O)NCCO [CBK269996] | 101.031
11 | Nc1nccnc1C(=O)N1CCN(C(=O)Cc2c[nH]c3ccccc23)CC1 [CBK298339] | 95.4562
12 | COc1ccc(Cl)cc1NC(=O)C(=O)NCC1CCCO1 (stereo not drawn) [CBK263823] | 138.043
13 | O=C(O)c1cc(NC(=O)c2cccc(N3C(=O)c4ccccc4C3=O)c2)cc(C(=O)O)c1 [CBK263338] | 94.6768
14 | COCCN1C(=O)CN(Cc2ccccc2)C1=O [CBK162369] | 45.6178
15 | COc1cc(/C=C2\SC(=N)NC2=O)cc(Cl)c1OS(=O)(=O)c1ccc(NC(C)=O)cc1 [CBK264502] | 100.875
16 | Cc1cccc(Nc2nccc(-n3ccc(C)n3)n2)c1 [CBK288616] | 80.1638
17 | COc1ccc(-c2cc3cccn(CC(=O)N(C)C)c-3n2)cc1 [CBK285382] | 74.6847
18 | CC(C)C(NC(=O)CN1CSCC1=O)c1ccc(C(C)(C)C)cc1 (stereo not drawn) [CBK297899] | 85.1004
19 | COc1cc(CN2CCN(C(=O)c3cccnc3)CC2)cc(OC)c1O [CBK265210G] | 74.7532
20 | CN1CCN(c2nccnc2-c2cccnc2)CC1 [CBK036612] | 109.24
21 | O=C1CC(N2CCN(C3CC(=O)N(Cc4ccccc4)C3=O)CC2)C(=O)N1Cc1ccccc1 (stereo not drawn) [CBK269198] | 113.687
22 | O=C(O)C(=C/C=C/Br)C(=O)O [CBK260906] | 100.902
23 | NC(=O)[C@H]1C[C@@H](O)[C@H](O)[C@H]2[C@@H]1S/C(=N\c1ccc(Cl)cc1)N2Cc1ccccc1 [CBK288940] | 65.2287
24 | O=C(CN1C(=O)N2CCN=C2c2ccccc21)NC1CCCC1 [CBK283959] | 65.3184
25 | Cc1ccc(C2CCCN2C(=O)C(C)Cn2cncn2)cc1C (stereo not drawn) [CBK282213] | 86.2176
26 | CCOC(=O)CSc1nc2ccc(I)cc2c(=O)n1Cc1ccccc1 [CBK266602] | 105.775

Row | SMILES | % of control remaining
27 | O=C(c1cccnc1)C1CCN(C(=O)Cc2cccc(F)c2)CC1 [CBK283506] | 92.2508
28 | c1ccc2sc(-c3cc(Nc4ccc5[nH]ccc5c4)ncn3)cc2c1 [CBK090858] | 133.959
29 | COc1ccc(-c2cc(C(=O)N/N=C/c3c(C)[nH]c4ccccc34)[nH]n2)cc1 [CBK262884] | 6.288
30 | COCCn1c(SCC(=O)N2CCCc3ccccc32)nc(O)cc1=O [CBK304191] | 38.7753
31 | Cc1cccc(-n2nc3c4nonc4ccc3[n+]2[O-])c1C [CBK264626] | 115.422
32 | O=C(c1c(NS(=O)(=O)c2ccc3ccccc3c2)sc2c1CCCC2)N1CCOCC1 [CBK028636] | 82.9161
33 | Cc1n[nH]c(O)c1C(c1ccc(OC(=O)c2ccccc2)cc1)c1c(C)n[nH]c1O [CBK265019] | 102.3
34 | COc1cccc(CC(=O)NCc2ccccc2OC2CCNC2)c1 (stereo not drawn) [CBK024487T] | 98.2605
35 | O=c1sn(-c2ccccc2C(F)(F)F)c(=O)n1CC1CC1 [CBK113675] | 99.7402
36 | COc1ccc([N+](=O)[O-])cc1NC(=O)N[C@@H]1CC[C@@]2(c3ccc(OC)c(OC)c3)CCN(C)[C@H]2C1 [CBK036449T] | 82.4642
37 | OCc1ccc(-n2ncc(-c3ccc(F)cc3F)n2)cc1 [CBK112731] | 97.3092
38 | Cc1nn(C)c(S(=O)(=O)N2CCOCC2c2cccc(F)c2)c1C(F)F (stereo not drawn) [CBK304729] | 86.0273
39 | CC(Oc1ccc(Cl)cc1Cl)C(=O)N1CCN(Cc2ccc3c(c2)OCO3)CC1 (stereo not drawn) [CBK074438] | 97.8144
40 | Cc1nn(C)c2ncc(S(=O)(=O)Nc3ccc(F)cn3)cc12 [CBK305175] | 89.6429
41 | O=C(CCCOc1ccccc1)Nc1cccnc1N1CCNCC1 [CBK028258T] | 87.7237
42 | Cc1nn(C)c(Oc2ccc3c(c2)CCCC3)c1[N+](=O)[O-] [CBK000273] | 77.3866
43 | CN(C)S(=O)(=O)c1ccc(C(=O)Nc2ccc3ncn(C)c(=O)c3c2)cc1 [CBK268450] | 86.2031
44 | COc1ccc(-c2noc(CN(C)C(=O)c3cccs3)n2)cc1 [CBK270286] | 85.3949
45 | O=C(Cn1cnc(NCc2cscn2)n1)N1CCCCCC1 [CBK304061] | 29.0097
46 | O=C(C[C@@H]1O[C@H](CNS(=O)(=O)c2ccc(Cl)cc2)[C@@H](O)[C@H]1O)N1CCCC1 [CBK288911] | 61.3934
47 | O=C(CC1CCCCO1)Nc1cccc(Cn2ccnc2)c1 (stereo not drawn) [CBK282204] | 87.8494
48 | COc1cc(OC)cc(C(=O)Nc2cccc(-c3nc4ccccc4o3)c2)c1 [CBK097706] | 113.328
49 | Cn1c(=O)oc2cc(Br)ccc21 [CBK027375] | 64.2779
50 | O=C(c1ccco1)N1CCN(S(=O)(=O)c2ccc3c(c2)C(=NO)c2cc(S(=O)(=O)N4CCN(C(=O)c5ccco5)CC4)ccc2-3)CC1 [CBK262103] | 101.117
51 | Cc1[nH]c(=O)[nH]c(=S)c1C(=O)Nc1ccc(C(F)(F)F)cc1 [CBK115510] | 94.0873
52 | CCn1nc2c3ccccc3nc(C3CC3)n2c1=O [CBK284008] | 69.8138

Row | SMILES | % of control remaining
53 | O=C(Nc1ccc(Br)cc1)C1CC(O)CN1C(=O)OCc1ccccc1 (stereo not drawn) [CBK263233] | 90.4427
54 | OCC1CCCN1c1cncc(-c2cccnc2)n1 (stereo not drawn) [CBK065439] | 118.129
55 | O=C1NC2=C(C(=O)N(CC3CCCO3)C2)C(c2ccc(F)c(F)c2)N1 (stereo not drawn) [CBK282271] | 98.4977
56 | COc1cccc(-c2nc(CC(=O)N3CCC(C(=O)O)CC3)cs2)c1 [CBK286797] | 96.4594
57 | CC(=O)c1cc2c(cc1NC(=O)CSc1ccccn1)OCO2 [CBK266225] | 114.61
58 | O=C(CN1CCOCC1)Nc1ccc(S(=O)(=O)N2CCCC2)cc1 [CBK268468] | 103.017
59 | Cc1ccc(CN(CC(=O)N2CCC(C(N)=O)CC2)S(=O)(=O)c2ccc(Br)cc2)cc1 [CBK265813] | 126.415
60 | O=C(Nc1ccccc1-c1nc2ccccc2[nH]1)c1ccc(S(=O)(=O)N2CCCC2)cc1 [CBK263252] | 61.0239
61 | Cc1ccccc1-c1cncc(C2CCN(C(=O)CCOc3ccccc3)CC2)n1 [CBK286154] | 112.813
62 | CCOC(=O)c1ccc(S(=O)(=O)N2CCCCC2)cc1 [CBK069738] | 89.421
63 | c1coc(-c2ccc(Nc3ccc4c(c3)OCCO4)nc2)c1 [CBK037765] | 97.0811
64 | N#CCCN(CCc1ccccc1)S(=O)(=O)c1cccc2nsnc12 [CBK261138] | 98.9153
65 | Cc1cc(NC(=O)COc2ccccc2)nc2c1c(=O)oc1ccccc12 [CBK287436] | 95.7869
66 | CCCC(=O)c1ccc(S(=O)(=O)N2CCCN(Cc3c(-c4ccccc4)nc4sccn34)CC2)cc1 [CBK062912] | 79.4692
67 | COc1ccc(F)c(CN(CC2CCNCC2)C(=O)Nc2ccccc2C(F)(F)F)c1 [CBK049805] | 113.289
68 | COc1ccccc1NC(=O)CN1CCN(CCC(=O)c2ccc(C(C)C)cc2)CC1 [CBK023925C] | 73.1147
69 | CCOC(=O)c1sc2cccc(F)c2c1COC(=O)c1ccc(CNC(N)=O)cc1 [CBK297873] | 105.147
70 | CCOC(=O)C1=C(C)N(c2ccc(C(=O)O)cc2)C(=O)NC1c1ccc(OC(F)F)c(OC)c1 (stereo not drawn) [CBK297878] | 58.9918
71 | CCN1C(=O)C2(CC(=O)N(CCc3cccc(OC)c3)C2=O)c2cc(C)ccc21 (stereo not drawn) [CBK075195] | 87.1866
72 | O=C(CS(=O)(=O)c1cc2c(N3CCNCC3)nccc2s1)c1ccc(N2CCCC2)cc1 [CBK042232C] | 96.1401
73 | CC(=O)N1C[C@@H]2CCCCN(CCOc3ccccc3)[C@@H]2C1 [CBK285494] | 80.4302
74 | COCCN(Cc1ccncc1)C(=O)c1cc(C(C)C)n2ncnc2n1 [CBK306983] | 42.3617
75 | CC(=O)N1CCC(C(=O)NC(=O)NCc2ccc(F)cc2)CC1 [CBK034834] | 107.153
76 | CCc1cc2c(=O)c(-c3nc(C)cs3)c(CCC(=O)O)oc2cc1O [CBK264838] | 104.031
77 | CC1CCc2c(sc3ncnc(OCC(=O)N(C)CCC#N)c23)C1 (stereo not drawn) [CBK304976] | 73.1737
78 | C=CCSc1nnc(-c2ccccc2NC(=O)CC)c(O)n1 [CBK266411] | 101.45
